Measurements published in the supplement of paper PMC10126150.
Values marked as one replicate rest on one cluster of the flow cell; about a third of the high ones do not repeat.
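Note: ATP exposure 15 min at 22 °C before imaging.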

What follows are sequences tested on ATP (assay: switch fluorescence ratio, 500 uM ATP over buffer (Cy3 cluster intensity, sum of 5 cycles each) (fold (ratio)); higher = stronger signal-on switching upon ATP binding; sequences stand for … in TCGTCGGCAGCGTCAGATGTGTATAAGAGACAGTTTTTTTTTTTTTTTTTTTTTTTTT…TC). Conditions: aptamer strand: ATP DNA aptamer (quencher-CACCTGGGGGAGTATTGCGGAGGAAGG + anchor), 100 nM annealed; ATP concentration: 500 uM; one replicate.
Procedure, shortened: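 Cy3-labelled switching-strand clusters on a modified Illumina MiSeq flow-cell were annealed to 100 nM quencher-labelled ATP aptamer and imaged first in selection buffer, then after 15 min with 500 uM ATP at 22 °C. NaOH stripping and re-annealing separated each of five buffer/ATP cycles, and clusters outside 100-1000 RFU were excluded. The fluorescence ratio sums target-cycle Cy3 intensity over buffer-cycle Cy3 intensity per cluster and averages it per switch-domain sequence.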
CTCACAATGG showed a switch fluorescence ratio of 2.79.
Sequence GTCTTATACT has a switch fluorescence ratio of 1.01.
CGTCCCTGGG gave a switch fluorescence ratio of 1.05.
Sequence ACCATGTTAG has a switch fluorescence ratio of 1.04.
With TGAGGGTTC the switch fluorescence ratio was 0.986.
TTAACTGGAG was tested, and the switch fluorescence ratio was 0.99.
Sequence TTCCGGGATT has a switch fluorescence ratio of 1.07.
ACAGTCCTTC showed a switch fluorescence ratio of 1.04.
Sequence GGGGTCTCT has a switch fluorescence ratio of 1.02.
Work on AGTAGTGTCG yielded a switch fluorescence ratio of 1.04.
For TCGAACCACG, the switch fluorescence ratio was 0.969.
Sequence GGGTCCAATT has a switch fluorescence ratio of 1.01.
In the case of TGGCATAGTG, the switch fluorescence ratio is reported as 1.05.
AACCAGGAAA showed a switch fluorescence ratio of 1.
For TCCGTTGATT, the switch fluorescence ratio was 1.01.
GCACCCCTTT showed a switch fluorescence ratio of 1.04.
TCGCAGTTT was tested, and the switch fluorescence ratio was 1.05.
Work on GACGGCCGTG yielded a switch fluorescence ratio of 0.985.
In the case of AAGATCAGGG, the switch fluorescence ratio is reported as 0.963.
For CGTTTTAGAC, the switch fluorescence ratio was 0.98.
Sequence GAAGAACTAG has a switch fluorescence ratio of 1.04.
CTGTGCATAA showed a switch fluorescence ratio of 1.95.
Sequence ACGGAGTCTT has a switch fluorescence ratio of 1.02.
ACGCGAGTGG showed a switch fluorescence ratio of 1.02.
For CGATTGAGAT, the switch fluorescence ratio was 1.02.
In the case of TACCGGGTAC, the switch fluorescence ratio is reported as 1.16.
ATAGCGTGTG was tested, and the switch fluorescence ratio was 1.03.
GCGGGGGTGG was tested, and the switch fluorescence ratio was 0.988.
ATTGTGTATG showed a switch fluorescence ratio of 0.985.
AGAAAACATC gave a switch fluorescence ratio of 0.995.
With CATCGCTTCA the switch fluorescence ratio was 1.05.
Sequence TCCTTTGCCC has a switch fluorescence ratio of 1.02.
CCAGGCGTTT was tested, and the switch fluorescence ratio was 1.04.
With CGATAAATGA the switch fluorescence ratio was 1.01.
GCTGGTGTGT showed a switch fluorescence ratio of 1.03.
ACCAGTGAGG gave a switch fluorescence ratio of 1.01.
CCACTCGATG showed a switch fluorescence ratio of 1.02.
Sequence AGCGAGGTGC has a switch fluorescence ratio of 1.03.
AGGGATACAC showed a switch fluorescence ratio of 1.1.
CCGTGCCCAG gave a switch fluorescence ratio of 1.91.
Work on ACTGTATACA yielded a switch fluorescence ratio of 1.17.
In the case of AAACGGTGCG, the switch fluorescence ratio is reported as 0.997.
TCTATCCAAT gave a switch fluorescence ratio of 1.06.
In the case of TTGATCCCCA, the switch fluorescence ratio is reported as 0.967.
With CCGTTTACGT the switch fluorescence ratio was 1.03.
GCAACTAGTG was tested, and the switch fluorescence ratio was 1.04.
With TTCTCATGCT the switch fluorescence ratio was 0.996.
With CCATGTATTT the switch fluorescence ratio was 1.07.
For CGATCTAAGG, the switch fluorescence ratio was 1.
In the case of TCATTGAGTG, the switch fluorescence ratio is reported as 1.05.
TGCTTGAAAT gave a switch fluorescence ratio of 0.999.
CTTCACACC gave a switch fluorescence ratio of 1.17.
CATTTATGAT showed a switch fluorescence ratio of 0.995.
Work on GGTGTAACGT yielded a switch fluorescence ratio of 0.967.
With CTGATATTGC the switch fluorescence ratio was 1.06.
For ACGATACGTA, the switch fluorescence ratio was 0.954.
For ATTACACTCT, the switch fluorescence ratio was 1.02.
GGGTCCACT was tested, and the switch fluorescence ratio was 1.01.
Work on AAACACCCAG yielded a switch fluorescence ratio of 1.15.
In the case of CTAGACGGGG, the switch fluorescence ratio is reported as 0.986.
In the case of TGAGAGGGCG, the switch fluorescence ratio is reported as 0.958.
For GCGTAATAAG, the switch fluorescence ratio was 0.987.
Work on TCTTACAAC yielded a switch fluorescence ratio of 0.972.
GTCCAGGGAA was tested, and the switch fluorescence ratio was 1.1.
GCATCTGTTG showed a switch fluorescence ratio of 0.95.
With AAGTACTATT the switch fluorescence ratio was 1.3.
In the case of ATCAAGGT, the switch fluorescence ratio is reported as 1.01.
In the case of GGAAGCATCG, the switch fluorescence ratio is reported as 0.998.
TTCGGGTAGA was tested, and the switch fluorescence ratio was 0.948.
AACTAGTATG showed a switch fluorescence ratio of 0.984.
Sequence TCATCCGTAG has a switch fluorescence ratio of 2.08.
Sequence AAAGAGGGGT has a switch fluorescence ratio of 1.01.
For TCTAGGGTTT, the switch fluorescence ratio was 1.01.
Sequence TCGGGAAGAC has a switch fluorescence ratio of 1.59.
GTTTAAGTGA gave a switch fluorescence ratio of 0.99.
TCACGTGTGT was tested, and the switch fluorescence ratio was 1.01.
Work on TCATGATTTA yielded a switch fluorescence ratio of 1.01.
Sequence TCAGTCCG has a switch fluorescence ratio of 1.08.
ATAAATTCTC was tested, and the switch fluorescence ratio was 0.99.
TTCCGAGGAT showed a switch fluorescence ratio of 0.949.
Sequence ATATTCTAAA has a switch fluorescence ratio of 0.975.
AATAACCATG gave a switch fluorescence ratio of 1.05.
GGCTTACGG was tested, and the switch fluorescence ratio was 0.984.
For AGGTCTCACA, the switch fluorescence ratio was 0.995.
Work on CGGTGGTCGG yielded a switch fluorescence ratio of 1.02.
TTACCTTACG was tested, and the switch fluorescence ratio was 1.58.
Sequence CGTGGACAAG has a switch fluorescence ratio of 0.982.
TCTGGGGAAA showed a switch fluorescence ratio of 1.22.
Work on TGTGGTAGTA yielded a switch fluorescence ratio of 1.02.
TCCTCATTGT showed a switch fluorescence ratio of 1.02.
TTGTGGCGCA showed a switch fluorescence ratio of 0.971.
TTGTTCAATT gave a switch fluorescence ratio of 1.02.
With TACATGCTTC the switch fluorescence ratio was 1.01.
CCATAACCGA was tested, and the switch fluorescence ratio was 1.02.
TCATTGTCCA gave a switch fluorescence ratio of 1.01.
CGCAGGGTGA was tested, and the switch fluorescence ratio was 1.02.
TAGCTAGGAA showed a switch fluorescence ratio of 0.946.
Sequence CTTCGTGCTA has a switch fluorescence ratio of 1.08.
In the case of ATTTAAAGAC, the switch fluorescence ratio is reported as 0.922.
TGAGAGTCGG gave a switch fluorescence ratio of 1.01.
Work on CCTTGAGATG yielded a switch fluorescence ratio of 1.03.
Sequence TAGTACAGTC has a switch fluorescence ratio of 0.91.
TCATAAACGC gave a switch fluorescence ratio of 1.08.
For TGTATATAAC, the switch fluorescence ratio was 0.996.
For CATTCGGAAA, the switch fluorescence ratio was 1.17.
Work on ACGGGTCTGA yielded a switch fluorescence ratio of 1.04.
With GTACCTTACC the switch fluorescence ratio was 1.8.
In the case of TTGCAGCG, the switch fluorescence ratio is reported as 1.04.
CGAAATTGTA was tested, and the switch fluorescence ratio was 0.976.
In the case of AACTGTGGGA, the switch fluorescence ratio is reported as 1.03.
With TGATGCGGCT the switch fluorescence ratio was 1.01.
For AAATGAGCAT, the switch fluorescence ratio was 1.01.
TAGTTGATGG was tested, and the switch fluorescence ratio was 0.989.
In the case of ATAGTCAGTG, the switch fluorescence ratio is reported as 0.969.
In the case of TCGCTGGGGG, the switch fluorescence ratio is reported as 1.33.
CGCGGGAG gave a switch fluorescence ratio of 1.03.
Sequence AGTATCACTT has a switch fluorescence ratio of 1.
In the case of AAGCAGTGGG, the switch fluorescence ratio is reported as 0.946.
Work on AGTAGGGCTA yielded a switch fluorescence ratio of 1.02.
In the case of CGCCGCATTT, the switch fluorescence ratio is reported as 3.43.
With ACTATTATGT the switch fluorescence ratio was 1.04.
In the case of ATATTTTTAA, the switch fluorescence ratio is reported as 0.983.
AAATACTAGA showed a switch fluorescence ratio of 1.03.
Sequence TGCTTATGAG has a switch fluorescence ratio of 1.02.
AAAATAGTCC gave a switch fluorescence ratio of 0.995.
Work on TGTGAGGTGA yielded a switch fluorescence ratio of 1.02.
Work on CCAATTTTTG yielded a switch fluorescence ratio of 1.
GCGTGTAATA showed a switch fluorescence ratio of 1.01.
For AAAGCCTGGT, the switch fluorescence ratio was 0.969.
For TTTAGAAACG, the switch fluorescence ratio was 0.958.
For ACTACGCCAC, the switch fluorescence ratio was 3.19.
For TGTAAAGAGT, the switch fluorescence ratio was 1.
Sequence CAAATGCAGT has a switch fluorescence ratio of 1.03.
TTCTGTACA gave a switch fluorescence ratio of 0.977.
Sequence TCTTATCTC has a switch fluorescence ratio of 0.988.
With TCAAAACCAA the switch fluorescence ratio was 1.04.
GAGCGGTGTA gave a switch fluorescence ratio of 1.
With CAGAGCCGCA the switch fluorescence ratio was 0.979.
Work on TCCAACGGTT yielded a switch fluorescence ratio of 1.08.
ACTCTGTCTG showed a switch fluorescence ratio of 1.1.
In the case of AGCCACGGGC, the switch fluorescence ratio is reported as 1.03.
GTGTTTCCGA was tested, and the switch fluorescence ratio was 1.04.
Sequence AAAAGTCTA has a switch fluorescence ratio of 1.01.
With GCCCTTAGAT the switch fluorescence ratio was 0.964.
TTTGTCACAT was tested, and the switch fluorescence ratio was 1.03.
Work on TTACCTTTAA yielded a switch fluorescence ratio of 0.999.
Sequence GCATACCCGC has a switch fluorescence ratio of 1.19.
AGTATAGGTG was tested, and the switch fluorescence ratio was 1.
With TGCTTGGGA the switch fluorescence ratio was 1.01.
In the case of TTCTGTAGAG, the switch fluorescence ratio is reported as 0.966.
In the case of GCAATATATA, the switch fluorescence ratio is reported as 1.14.
With CTGATGATG the switch fluorescence ratio was 1.04.
For GTGGTGAGAG, the switch fluorescence ratio was 1.02.
Sequence ATCGTGACAA has a switch fluorescence ratio of 1.03.
Sequence GTATTTGCGG has a switch fluorescence ratio of 0.98.
Work on TAATCTATCT yielded a switch fluorescence ratio of 0.978.
In the case of CGTCCTGAGC, the switch fluorescence ratio is reported as 1.03.
For TAACAGGAAG, the switch fluorescence ratio was 0.974.
In the case of GAAAAAAAGT, the switch fluorescence ratio is reported as 1.02.
Work on GAGTCCGGTG yielded a switch fluorescence ratio of 1.2.
For GGATTCAGTG, the switch fluorescence ratio was 1.07.
Work on AGTTTCTTCG yielded a switch fluorescence ratio of 1.02.
TCCCAGAAAA was tested, and the switch fluorescence ratio was 1.
Work on AGTACACGGT yielded a switch fluorescence ratio of 1.
ACCTCATCT gave a switch fluorescence ratio of 0.998.
ATACTGATGA gave a switch fluorescence ratio of 1.04.
In the case of TAGATATCCT, the switch fluorescence ratio is reported as 1.04.
Work on AATATTATAG yielded a switch fluorescence ratio of 1.02.
In the case of GCAAGTCACA, the switch fluorescence ratio is reported as 1.11.
In the case of CAGGTGTTAG, the switch fluorescence ratio is reported as 1.28.
ACAATGTCAG gave a switch fluorescence ratio of 1.02.
Sequence CTTTAGGACT has a switch fluorescence ratio of 1.02.
For CACTGGTACC, the switch fluorescence ratio was 1.07.
Work on AGTGCTTCAT yielded a switch fluorescence ratio of 0.975.
GAGTAGGGAT showed a switch fluorescence ratio of 0.974.
With GGCTCAGCGT the switch fluorescence ratio was 1.11.
For CCTACCTTCA, the switch fluorescence ratio was 2.14.
GGTAACCGGT gave a switch fluorescence ratio of 1.06.
AGTGTGATAA was tested, and the switch fluorescence ratio was 1.01.
With CCATGTAAAC the switch fluorescence ratio was 1.17.
Sequence CTTGGCTTCG has a switch fluorescence ratio of 1.03.
Work on TCTACTTAAA yielded a switch fluorescence ratio of 1.01.
In the case of ACGTCTGTCT, the switch fluorescence ratio is reported as 0.987.
Sequence TTGCATTGAT has a switch fluorescence ratio of 1.
For AGACCCCGAG, the switch fluorescence ratio was 1.04.
Sequence GTCGCACTCC has a switch fluorescence ratio of 1.83.
Work on GGACAGGTCA yielded a switch fluorescence ratio of 1.03.
Work on TAATTGACGA yielded a switch fluorescence ratio of 1.06.
For TGGAATACGC, the switch fluorescence ratio was 1.57.
TTATAGTA was tested, and the switch fluorescence ratio was 1.01.
GACTTATAAC showed a switch fluorescence ratio of 1.02.
AGCAATTTTG gave a switch fluorescence ratio of 1.06.
Work on AACCCCGTCA yielded a switch fluorescence ratio of 0.991.
In the case of AAGGGGTGCC, the switch fluorescence ratio is reported as 0.976.
GAGGATGCGG was tested, and the switch fluorescence ratio was 1.14.
With AAGACAGCTT the switch fluorescence ratio was 0.947.
CCGGCGAATC showed a switch fluorescence ratio of 3.44.
TCCGGCATGT was tested, and the switch fluorescence ratio was 1.2.
CTCAACACTG showed a switch fluorescence ratio of 1.1.
For ACGGCTCGTC, the switch fluorescence ratio was 0.95.
TTTACCAAGT gave a switch fluorescence ratio of 1.06.
